Data taken from the RNAGym collection of RNA variant scans (doi:10.1073/pnas.2313332121).
Variants at the floor of the assay are shown more often than the library holds them.

B1: TPR 5TU (parent)
chain: GGAUCUUCUCGAUCUAACAAAAAAGACAAAUCUGCCACAAAGCUUGAGAGCAUCUUCGGAUGCAGAGGCGGCAGCCUUCGGUGGCGCGAUAGCGCCAACGUUCUCAACUAUGACACGCAAAACGCGUGCUCCGUUGAAUGGAGUUUAUCAUG

Variants of: B1
Assay: polymerase ribozyme fitness, log enrichment relative to wild type (log ratio); higher = more active; in vitro selection for triplet polymerase activity
How it was run: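 Only genotypes with ≥10 input reads and ≥1 read per output were kept after Illumina sequencing of input and output libraries. These libraries were PCR-built, transcribed mutants of each subunit of a heterodimeric triplet polymerase ribozyme, each put through one triplicate in vitro selection round with frozen incubation at −7 °C, gel excision of extended constructs, streptavidin-bead capture and RT-PCR. Fitness is a logarithmic ratio of genotype enrichment to wild-type enrichment, from inverse-variance-weighted replicate averages, with the logarithm in base 2.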

Variant	polymerase ribozyme fitness (log ratio)
GGAUCUUCUCGAUCUAACAACAAAGACAAAUCUGCCACAAAGCUUGAGAGCAUCUUCGGAUGCAGAGGCGGCAGCCUUCGGUGGCACGAUAGCGCCAACGUUCUCAACUAUGACACGCAAAACGCGUGCUCCGUUGAAUGGAGUUUAUCAUG [A21C G86A]	-0.32
GGAUCUUCUCGAUCUAACAAGAAAGACAAAUCUGCCACACAGCUUGAGAGCAUCUUCGGAUGCAGAGGCGGCAGCCUUCGGUGGCUCGAUAGCGCCAACGUUCUCAACUAUGACACGCGAAACGCGUGCUCCGUUGAAUGGAGUUUAUCCUG [A21G A40C G86U A119G A150C]	≤ -4.2
GGAUCUUCUCGAUCUAACAAGAAAGACAUAUCUGCCACAAAGCUUGAGAGCAUCUUCGGAUGCAGAGGCGGCAGCCUUCGGUGGUGCGAUAGCGCCAACAUUCCCAACUAUGACACGCAAAACGCGUGCUCCGUUUAAUGGAGUUUAUCAUG [A21G A29U C85U G100A U104C G136U]	≤ -4.2
GGAUCUUCUCGAUCUAACAAGUAGGACAAAUCUGCCACUAAGCUUGAGAGCAUCUUCGGAUGCAGAGGCGGCAGCCUUCGGUGGCGAGAUAGCGCAAACGUUCUCAACUAUGACACGCAAAACGCGUGCUCCGUUGAAUGGAGUUUACCAUG [A21G A22U A24G A39U C87A C96A U148C]	≤ -4.2
GGAUCUUCUCGAUCUAACAACAAAGACAAAUCUGCCACAAAGCUUGAGAGCAACUACGGAUGCAGAGGUGGCAGCCUUCGGUGGCGCGAUAGCGCCAUCGUUCUCAACUAUGACACCGAAAACGCGUGCUCCGAUGAAUGGAGUUUAUCAUG [A21C U53A U56A C69U A98U G117C C118G U134A]	≤ -4.2
GGAUCUUCUCGAUCUAACAACAAAUACAAAUCUGCCACAAAGCUUGAGAGCAUCUUCGGAUGCAGAGGCGGCAGCCUUCGGUGGCGCGAUAGCGCAGACGUUCUCAACUAUGACACGCAAAACGCGUGCUCCGUUGAAUGGAGUUUAUCAUG [A21C G25U C96A A97G]	-3.82
GGAUCUUCUCGAUCUAACAACAAAGACAAAUCUGCCACAAAGCUUGAGAGCAUCUUCGGAUGCAGAGGCGGCAGCCGUCGGUGGCGCGAUAGCGCGAACGUUGUCAACUAUGACACGCAAAACGCGUGCUCCGUUGAAUGGAGUUUUUCAUG [A21C U77G C96G C103G A147U]	≤ -4.2
GGAUCUUCUCGAUCUAACAACAAAGACAAAUCUGCCACAAAGCUUGAGAGCAUCUGCGGAUGCAGAGGCGGCAGCCUUCGGUGGCGCGCUAGCGCAAACGUUCUCAACUAUGACAGGCCAAACGCGUGCUCCGUUGAAUGGAGUUUAUCAUG [A21C U56G A89C C96A C116G A119C]	-2.02
GGAUCUUCUCGAUCUAACAACAAACACAAAUCUGCCACAAAGCUUGAGAGCAACUUCGGAUGCAGAGGCGGCAGCCUUCGGUGGCGCGAUAGCGCCAACGUUCUCAACUAUGACACGCAAAACGCGUGCUCCGUUGAAUGGAGUUUAUCAUG [A21C G25C U53A]	-3.09
GGAUCUUCUCGAUCUAACAACAAAGACAAAUCUGCCACAAAGCAUGAGAGCAUCUUCGGAUGCAGAGGCGGCAGACUUCGGUGGCGCGAUAGCGCAAACGUUCUCAACUAUGACACGCAAAACGCGUGCUCCGUUGAAUGGAGUUUAUCAUG [A21C U44A C75A C96A]	-3.98
GGAUCUUCUCGAUCUAACAACAAAGACAAAUCUUCCACAAAGCUUGAGAGCAUCUUCGGAAGCAGAGGCGGCAGCCUUCGGUGGCGUGAUAGCGCCAACGUUCUCAACUAUGACACGCAAAACGCGUGCUCCGGAGAAUGCAGUUUAUCAUG [A21C G34U U61A C87U U134G U135A G141C]	≤ -4.2
GGAUCUUCUCGAUCUAACAAGAAAGUCACAUCUGCCACAAAGCUUGAGAGCGUCUUUGGAUGCAGAGGCGGCAGCCUUCGGUGGCGCCAUAACGCCAACGUUCUCAACUUUGACACGCAAAACGCGUGCUCCGUUGAAUGGAGUUUAUCAUG [A21G A26U A29C A52G C57U G88C G92A A110U]	≤ -4.2
GGAUCUUCUCGAUCUAACAACAAAGACAAAUCUGCCACAAAGCUUGAGAACAUCUUCGGAUGCAGAGGCGGCAGCCUUCGGUGGCGCGAUAGCGCCAACGUACUCAACUAUGACACGCAAAACGCGUGCUCCGUUGAAUGGAGUUUAUCAUG [A21C G50A U102A]	-1.21
GGAUCUUCUCGAUCUAACAACAAAAACAAAUCUGCCACAAAGCUUGAGAGCAUCUUCGGAUGCAGAGGCGGCAGCCUUCGGUGGCGCGAUAGCGCCAACGUUCUCAACUAUGACACGCAAAACGCGUGCUCCGUUGAAUGGAGUUUAUCAUG [A21C G25A]	-2.85
GGAUCUUCUCGAUCUAACAAGAGAGACAAGUCUGCCACAAAGCUUGAGAGCAUCUUCGGAUGCAGAGACGCCAGCAAUCGGUGGCGCGAUAUUGCCGACGUUCUCAACUAUGACACGCAAAACGCGUGCUCCGUUGAAUGGAGUUUAUCGUG [A21G A23G A30G G68A G71C C76A U77A G92U C93U A97G A150G]	≤ -4.2
GGAUCUUCUCGAUCUAACAACAAAGACAAAUCUCCCACUAAGCUUGAGAGCAUCAUCGGAUGCAGAGGCGGCAGCCUUCGGUGGCGCGAUAGCGGCAACGUUCACAACUAUGACACGCGAAACGCGUGCUCCGUUGAAUGGAGGUAAUCAUG [A21C G34C A39U U55A C95G U104A A119G U144G U146A]	≤ -4.2
GGAUCUUCUCGAUCUAACAAGAAAGACAAAUCUGCCACAAAGCUUGAGAGCAUCUUCGGAUGCAGAGGCGGCAGCCUUCGGUGGCGCGAUGGCGCCAACGUUCUCAACUAUGACACUCAAAACGCGUGCUCCGUUGAAUGGCGUUUAUCAUG [A21G A91G G117U A142C]	≤ -4.2
GGAUCUUCUCGAUCUAACAACAAAGACAAAUCUGCCACAAAGCUUGAGAGCAUCUUCGGAUGCAGAGUCGGCAGCCUUCGGUGGCGCGAUAGCGCCAACGUUCUCAACUAUGACACGCAAAACGCGUGCUCCGUUGAAUGGAGUUUAUCAUG [A21C G68U]	≤ -4.2
GGAUCUUCUCGAUCUAACAACAAAGACAAAUCUGCCACAAAGCUUGAGAGCAUCUUGGGAUGCAGAGGCGGCAGCCUUCGAUGGCGCGAUAGCGCCAACGUUCUCAACUAUGACCCGCAAAACGCGUGCUCCGUUGAAUGGAGUUUAUCAUG [A21C C57G G81A A115C]	-1.84
